Source: patent US20250354930A1, “IONIC LIQUID ENCAPSULATION OF NIR DYES FOR THE IMPROVEMENT OF BLOODSTAIN DETECTION” (University of Mississippi, priority 2024, published 2025)

Molecular target: tryptophan residue of HSA (Homo sapiens, UniProt P02768)
Conditions: condition 3: SO3SQ added to aqueous HSA solution already containing CG (1:1)

SMILES: CC1=C(c2ccc(OCCCCS(=O)(=O)O)cc2)/C(=C2/C(=O)C(c3c(-c4ccc(OCCCCS(=O)(=O)[O-])cc4)c(C)c4ccccn34)C2O)[n+]2ccccc21 (stereo not shown) [SO3SQ]
- reduction of the tryptophan fluorescence: ~90%
